Measurements as given in the supplement of paper PMC4604168 (melanoma cell lines).
The other results are listed elsewhere or left out. Most values come without repeats; read them as rough.

system: LB2518-MEL; experiment: cell count relative to DMSO control; melanoma cells; higher = more viable cells; conditions: library dose: low library concentration; 72 h
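Also: cell number obtained by counting DAPI-stained nuclei in high-throughput microscope images with image analysis software, screen run in 1,536-well plates.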

SMILES	cell count [%]
O=S(=O)(c1ccccc1)N(CC(F)(F)F)c1ccc(C(O)(C(F)(F)F)C(F)(F)F)cc1 + CC(C)CCN1c2nc(Nc3cc(F)c(O)c(F)c3)ncc2N(C)C(=O)C1C [BID1870] (first compound 1.4 µM, partner dose 0.2 µM)	110
N#Cc1c(O)c2c(-c3ccc(-c4ccccc4O)cc3)csc2[nH]c1=O + Oc1nc(-c2ccc(C(F)(F)F)cc2)nc2c1CSCC2 [XAV939] (first compound 2 µM, partner dose 2 µM)	98.9
N#Cc1c(O)c2c(-c3ccc(-c4ccccc4O)cc3)csc2[nH]c1=O + CCN(CC)CCCCNc1ncc2cc(-c3cc(OC)cc(OC)c3)c(NC(=O)NC(C)(C)C)nc2n1 [PD173074] (first compound 2 µM, partner dose 0.1 µM)	93.7
COc1ccc2c(c1)CCC1C2CCC2(C)C(NCCCCCCN3C(=O)C=CC3=O)CCC12 (centres undefined) + O=C1NC(=O)/C(=C/c2ccc(-c3ccc(F)cc3O)o2)S1 [AS252424] (first compound 0.4 µM, partner dose 1 µM)	117
COc1ccc(COc2ccc(Cc3cnc(N)nc3N)cc2OC)cc1 + Cn1cc(/C=C2\C(=O)Nc3cccnc32)c2ccccc21 [GW441756] (first compound 1 µM, partner dose 0.4 µM)	115
Oc1cc(-c2nc(-c3ccccc3)[nH]c2-c2ccncc2)ccc1Cl + CCCCCCCCCCCC1=C(O)C(=O)C=C(O)C1=O [Embelin] (first compound 0.2 µM, partner dose 1.2 µM)	102
O=C(O)C(=O)Nc1sc2c(c1C(=O)O)CCNC2 + Cn1cc(/C=C2\C(=O)Nc3cccnc32)c2ccccc21 [GW441756] (first compound 1.66667 µM, partner dose 0.4 µM)	75.2
O=C(O)C(=O)Nc1sc2c(c1C(=O)O)CCNC2 + CCCCCCCCCCCC1=C(O)C(=O)C=C(O)C1=O [Embelin] (first compound 1.66667 µM, partner dose 1.2 µM)	106
COc1ccc2c(c1)CCC1C2CCC2(C)C(NCCCCCCN3C(=O)C=CC3=O)CCC12 (centres undefined) + CCN(CC)CCCCNc1ncc2cc(-c3cc(OC)cc(OC)c3)c(NC(=O)NC(C)(C)C)nc2n1 [PD173074] (first compound 0.4 µM, partner dose 0.1 µM)	89.3
COC(=O)c1sccc1S(=O)(=O)Nc1ccc(Nc2ccccc2)cc1OC + COc1cc2ncnc(Nc3ccc(Oc4ccccc4)cc3)c2cc1OC [SrcI1] (first compound 1 µM, partner dose 2 µM)	134
CCN(CC)CCCCNc1ncc2cc(-c3cc(OC)cc(OC)c3)c(NC(=O)NC(C)(C)C)nc2n1 + COc1ccc(COc2ccc(Cc3cnc(N)nc3N)cc2OC)cc1 [GW2580] (first compound 0.1 µM, partner dose 1 µM)	84.3
COc1cc(N2CCC(N3CCN(C)CC3)CC2)ccc1Nc1ncc(Cl)c(Nc2ccccc2S(=O)(=O)C(C)C)n1 + CC(C)CCN1c2nc(Nc3cc(F)c(O)c(F)c3)ncc2N(C)C(=O)C1C [BID1870] (first compound 0.08 µM, partner dose 0.2 µM)	113
c1cc(-c2cnn3cc(-c4ccc(OCCN5CCCCC5)cc4)cnc23)ccn1 [Dorsomorphin] + Cn1cc(/C=C2\C(=O)Nc3cccnc32)c2ccccc21 [GW441756] (first compound 0.4 µM, partner dose 0.4 µM)	98.4
Cn1cc(/C=C2\C(=O)Nc3cccnc32)c2ccccc21 + CCCCCCCCCCCC1=C(O)C(=O)C=C(O)C1=O [Embelin] (first compound 0.4 µM, partner dose 1.2 µM)	113
Oc1nc(-c2ccc(C(F)(F)F)cc2)nc2c1CSCC2 + Cn1cc(/C=C2\C(=O)Nc3cccnc32)c2ccccc21 [GW441756] (first compound 2 µM, partner dose 0.4 µM)	92.1
COc1ccc(-c2ccc3c(N4CCOCC4)nc(N4C[C@@H](C)O[C@@H](C)C4)nc3n2)cc1CO + Cc1cc([N+](=O)[O-])ccc1NS(=O)(=O)c1cc(Cl)ccc1Cl [FH535] (first compound 0.02 µM, partner dose 1 µM)	105
COc1cc(N2CCC(N3CCN(C)CC3)CC2)ccc1Nc1ncc(Cl)c(Nc2ccccc2S(=O)(=O)C(C)C)n1 + Cn1cc(/C=C2\C(=O)Nc3cccnc32)c2ccccc21 [GW441756] (first compound 0.08 µM, partner dose 0.4 µM)	119

SMILES	cell count [%]
CCN(CC)CCCCNc1ncc2cc(-c3cc(OC)cc(OC)c3)c(NC(=O)NC(C)(C)C)nc2n1 + Cn1cc(/C=C2\C(=O)Nc3cccnc32)c2ccccc21 [GW441756] (first compound 0.1 µM, partner dose 0.4 µM)	97
N#Cc1c(O)c2c(-c3ccc(-c4ccccc4O)cc3)csc2[nH]c1=O + O=c1cc(-c2cccc3c2Sc2ccccc2S3)oc(N2CCOCC2)c1 [KU55933] (first compound 2 µM, partner dose 1 µM)	108
COc1ccc(COc2ccc(Cc3cnc(N)nc3N)cc2OC)cc1 + CC(C)CCN1c2nc(Nc3cc(F)c(O)c(F)c3)ncc2N(C)C(=O)C1C [BID1870] (first compound 1 µM, partner dose 0.2 µM)	85.3
COc1cc2ncnc(Nc3ccc(Oc4ccccc4)cc3)c2cc1OC + c1cc(-c2cnn3cc(-c4ccc(OCCN5CCCCC5)cc4)cnc23)ccn1 [Dorsomorphin] (first compound 2 µM, partner dose 0.4 µM)	142
O=C(O)C(=O)Nc1sc2c(c1C(=O)O)CCNC2 + c1cc(-c2cnn3cc(-c4ccc(OCCN5CCCCC5)cc4)cnc23)ccn1 [Dorsomorphin] (first compound 1.66667 µM, partner dose 0.4 µM)	106
COC(=O)c1sccc1S(=O)(=O)Nc1ccc(Nc2ccccc2)cc1OC + Oc1nc(-c2ccc(C(F)(F)F)cc2)nc2c1CSCC2 [XAV939] (first compound 1 µM, partner dose 2 µM)	95.4
O=C1NC(=O)/C(=C/c2ccc(-c3ccc(F)cc3O)o2)S1 + COc1cc(N2CCC(N3CCN(C)CC3)CC2)ccc1Nc1ncc(Cl)c(Nc2ccccc2S(=O)(=O)C(C)C)n1 [NVP-TAE684] (first compound 1 µM, partner dose 0.08 µM)	92.8
O=S(=O)(c1ccccc1)N(CC(F)(F)F)c1ccc(C(O)(C(F)(F)F)C(F)(F)F)cc1 + CCCCCCCCCCCC1=C(O)C(=O)C=C(O)C1=O [Embelin] (first compound 1.4 µM, partner dose 1.2 µM)	104
O=C(O)C(=O)Nc1sc2c(c1C(=O)O)CCNC2 + O=C1NC(=O)/C(=C/c2ccc(-c3ccc(F)cc3O)o2)S1 [AS252424] (first compound 1.66667 µM, partner dose 1 µM)	95
Cc1cc([N+](=O)[O-])ccc1NS(=O)(=O)c1cc(Cl)ccc1Cl + CC(C)CCN1c2nc(Nc3cc(F)c(O)c(F)c3)ncc2N(C)C(=O)C1C [BID1870] (first compound 1 µM, partner dose 0.2 µM)	114
COc1ccc2c(c1)CCC1C2CCC2(C)C(NCCCCCCN3C(=O)C=CC3=O)CCC12 (centres undefined) + O=S(=O)(c1ccccc1)N(CC(F)(F)F)c1ccc(C(O)(C(F)(F)F)C(F)(F)F)cc1 [T0901317] (first compound 0.4 µM, partner dose 1.4 µM)	112
Oc1nc(-c2ccc(C(F)(F)F)cc2)nc2c1CSCC2 + CC(C)CCN1c2nc(Nc3cc(F)c(O)c(F)c3)ncc2N(C)C(=O)C1C [BID1870] (first compound 2 µM, partner dose 0.2 µM)	96.5
COc1cc(N2CCC(N3CCN(C)CC3)CC2)ccc1Nc1ncc(Cl)c(Nc2ccccc2S(=O)(=O)C(C)C)n1 + O=c1cc(-c2cccc3c2Sc2ccccc2S3)oc(N2CCOCC2)c1 [KU55933] (first compound 0.08 µM, partner dose 1 µM)	123
N#Cc1c(O)c2c(-c3ccc(-c4ccccc4O)cc3)csc2[nH]c1=O + CCCCCCCCCCCC1=C(O)C(=O)C=C(O)C1=O [Embelin] (first compound 2 µM, partner dose 1.2 µM)	118
c1cc(-c2cnn3cc(-c4ccc(OCCN5CCCCC5)cc4)cnc23)ccn1 [Dorsomorphin] + O=c1cc(-c2cccc3c2Sc2ccccc2S3)oc(N2CCOCC2)c1 [KU55933] (first compound 0.4 µM, partner dose 1 µM)	121
COc1ccc(-c2ccc3c(N4CCOCC4)nc(N4C[C@@H](C)O[C@@H](C)C4)nc3n2)cc1CO + CCN(CC)CCCCNc1ncc2cc(-c3cc(OC)cc(OC)c3)c(NC(=O)NC(C)(C)C)nc2n1 [PD173074] (first compound 0.02 µM, partner dose 0.1 µM)	91.1
N#Cc1c(O)c2c(-c3ccc(-c4ccccc4O)cc3)csc2[nH]c1=O + COc1ccc2c(c1)CCC1C2CCC2(C)C(NCCCCCCN3C(=O)C=CC3=O)CCC12 [U73122] (first compound 2 µM, partner dose 0.4 µM)	122
